In the supplement of paper PMC3334620:
Whole data set: some 33,000 sequences, median “E-score (-0.5 to 0.5)” near -0.012, cut for the highest 2% near 0.29. The list shows a part of the results.

The sequences below were run against T1, Ybr033w (UniProt P38073) (assay: PBM E-score (8-mer binding enrichment) (E-score (-0.5 to 0.5)); higher = stronger / more preferred TF binding; most listed sequences are background and not binding sites). Conditions: protein concentration: 200 nM; construct: GST-full length.
T1 sequence: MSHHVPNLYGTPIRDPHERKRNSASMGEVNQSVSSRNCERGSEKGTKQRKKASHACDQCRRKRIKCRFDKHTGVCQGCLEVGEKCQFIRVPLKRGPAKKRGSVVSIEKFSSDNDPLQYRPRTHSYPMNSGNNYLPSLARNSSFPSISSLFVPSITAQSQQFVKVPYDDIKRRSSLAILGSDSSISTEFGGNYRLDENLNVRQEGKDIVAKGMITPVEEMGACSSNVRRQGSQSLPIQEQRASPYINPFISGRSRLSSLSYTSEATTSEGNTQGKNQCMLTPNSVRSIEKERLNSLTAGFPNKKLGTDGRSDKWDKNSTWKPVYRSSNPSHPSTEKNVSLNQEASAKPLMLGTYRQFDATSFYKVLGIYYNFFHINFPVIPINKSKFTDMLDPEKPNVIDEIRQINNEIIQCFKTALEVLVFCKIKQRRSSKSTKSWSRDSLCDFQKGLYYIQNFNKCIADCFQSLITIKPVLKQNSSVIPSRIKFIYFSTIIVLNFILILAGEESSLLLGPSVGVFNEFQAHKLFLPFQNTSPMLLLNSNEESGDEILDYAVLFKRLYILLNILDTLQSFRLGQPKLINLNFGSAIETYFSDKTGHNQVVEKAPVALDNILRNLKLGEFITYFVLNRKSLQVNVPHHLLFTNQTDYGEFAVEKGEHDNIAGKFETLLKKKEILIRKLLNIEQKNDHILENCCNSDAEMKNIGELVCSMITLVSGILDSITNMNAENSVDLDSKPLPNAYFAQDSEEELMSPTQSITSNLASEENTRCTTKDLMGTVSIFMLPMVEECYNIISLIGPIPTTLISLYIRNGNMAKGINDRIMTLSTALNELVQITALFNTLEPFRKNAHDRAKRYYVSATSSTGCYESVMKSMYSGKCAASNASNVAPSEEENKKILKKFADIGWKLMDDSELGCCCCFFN
In short: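 Detection of bound protein used fluorescent anti-GST, with scans normalised by masliner. The proteins were GST-tagged yeast transcription factors applied at about 100-200 nM to universal all-10-mer Agilent arrays made double-stranded by primer extension. Each ungapped eight-base word, pooled with its reverse complement, was scored with an E-score from the Universal PBM Analysis Suite.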

Sequence	PBM E-score
CCCCAAGG	-0.267
AAACATGT	0.254
CGTCATAA	-0.0277
CCAACTGA	0.00563
GTTGCACA	-0.136
AAATCCAC	0.135
GATTACAA	0.0954
GGGACAGA	-0.264
ATTGGTCG	-0.0127
TCAAGCGA	-0.0198
CGCGACGC	-0.16
CGTACTCA	0.0846
CCGGCGCA	-0.139
CAAGACAC	0.0636
GGCTTGAC	-0.039
ACAATGAA	0.159
AGCCGGTA	-0.0534
CGCTGTGA	-0.156
CCCCCCAG	-0.438
AGAGCTCA	-0.134
ACCTCATA	0.15
ATGTGTAG	-0.034
GCGATCGC	-0.096
GGAGGTAA	0.0225
CTCGTGTA	-0.0837

Sequence	PBM E-score
CGGTCCTC	-0.166
CAGGTGAC	-0.264
GGTCATGA	-0.167
CGAAACTA	0.115
CCTCGCGC	-0.0829
AGTGCAAT	0.0955
ATCTATGA	0.141
AGGCCCCG	-0.349
ATCTAGAG	0.0989
CGATTTGC	0.0115
CCTAGACA	-0.266
ATACCTGA	0.203
CTCATAAA	0.201
AAGTACTG	0.112
GTGCCCGA	-0.142
ACACGCCG	0.0416
AAACACAA	0.21
ACATCCCG	0.0445
CTTGCGTA	0.139
AGACGCGA	0.091
AGAGTGAG	-0.0219
CACCGACA	-0.12
AAAAGTAG	0.204
AACGGGTA	0.0675
CGGAGGAC	-0.272

Sequence	PBM E-score
ACTTGTCA	0.00488
AGCAAGAC	0.035
CACACCTC	-0.14
CCAATAGC	-0.0726
CTGGACAG	-0.0335
ACGTTCCC	-0.163
ATTAATTG	0.268
CGTCCAAA	0.169
AACTTGTG	0.235
AGAATCTA	0.187
ATGGGAAG	-0.0785
AAACGATA	0.213
ATTTTAGG	0.097
ATAGCGTA	0.0854
CTTGCAAG	-0.0818
CTGACGAC	-0.076
TACCCTGA	-0.0837
ATATGTTA	0.178
ACAGCATC	0.0726
AATGAGGA	-0.0481
CATGGTAG	-0.139
AAAGACGT	0.0945
GATACAAA	0.277
CAGCGGGG	-0.308
GTTTCCTA	0.206

Sequence	PBM E-score
ACAGCAAC	0.208
ATCCTAAG	0.102
AAAACGGA	0.0397
CATTGTAC	0.0182
CGTATCAC	-0.0656
CTTACCCA	0.0469
TTCCAGAA	0.294
AGGATCAG	-0.166
GAGATACA	0.204
CTGCAATA	-0.0465
ACTTCAGC	-0.0746
GATAGGAA	0.0851
GGATTACC	0.0245
TGTGACAA	-0.00621
AAGCGTGG	-0.158
AGAACGCT	-0.105
GACCTACA	-0.146
AAGAAATT	0.281
GACACGGA	0.0693
CCAATACG	0.0384
GAGGGTCA	-0.297
GTACATGA	0.121
CAACGAGG	-0.106
CATAAGCC	-0.0149
CACCACGC	-0.279

Sequence	PBM E-score
TCTAGTCA	0.0917
CTGGCATA	-0.0172
GCTCTTAC	-0.0622
CCGCGGTA	-0.00086
CAACGAGA	0.0454
TGCTCAAA	0.127
AACATGCT	0.0601
GTAACGAA	0.0618
ACCGATTG	0.0647
TAGACAGA	0.157
CGGGGCCC	-0.256
AATTGTCA	0.139
CAATATTG	0.199
AGATTCAA	0.16
CCCATACG	-0.162
CGTATGCA	0.123
AGAGAGGC	-0.369
AAAAGAGT	0.0554
GAAAGCTC	-0.124
CAGCCAGA	-0.0493
AGAGTTAC	-0.21
CATTATAA	0.0193
GCCTAGTA	0.0454
GATGGAAC	0.0161
AATGTTTG	-0.0952

Sequence	PBM E-score
ACAGTTGG	-0.131
AAGCATAG	-0.158
GGGGTCGA	-0.173
ATTATCGA	0.0687
CATCATAC	0.161
GACTGAGC	-0.0991
ACGAAGCA	0.0493
ATATCGAG	0.03
AATGCTCT	-0.0668
CCCTCCTA	-0.267
GCAAATAC	0.13
CGTCCGGC	-0.211
CCGGTTCA	-0.113
AAACCGGT	-0.243
GAGGTCAA	-0.113
GCGGTCCA	-0.341
AGCGTAGG	-0.0658
ATCCAACC	0.168
GAAGAGGC	-0.111
GCTGAGAC	-0.0798
GATGCAAA	-0.0233
GCTAATGA	0.0451
AGGCCTAT	-0.0232
CGAGCTAA	-0.00818
AACATCCT	0.13

Sequence	PBM E-score
GCTGGAGA	-0.123
GATGCCGA	-0.175
GGCGTGAC	-0.141
GTATAACA	0.182
ACACTTGC	0.117
GCCGGGTA	-0.33
AGACGGCT	-0.18
AAATGGTA	0.215
CTTGATCC	0.0221
AAAATGCC	0.109
CCTTAGAA	-0.0193
GTTCACAA	0.18
GCTCGCCC	-0.174
AAATCTGC	0.211
ATTGACAC	-0.0449
ACTGATAC	-0.00572
CGGAAGGA	-0.0847
ATGGTTCA	0.144
GATAACTA	0.216
CTAGCATA	0.137
AAGGAGTC	-0.0677
CTGAGCGC	-0.161
AACCCGTA	-0.088
ACACAGCC	-0.156
CGACACAA	-0.092

Sequence	PBM E-score
GCTGCGAA	0.0677
AGATCACT	0.173
GGTTCTTA	-0.0888
TACGTCTA	-0.0992
GGCCGGGA	-0.179
CAGATAGC	-0.137
AAGTACTT	-0.106
AATCACAT	0.153
AGGTCGTC	-0.066
GACTCTCA	0.0773
ACACACAT	0.117
GCCTCGGA	-0.106
CAGTTGAG	-0.308
ATACTCAG	0.121
AGAGACCT	-0.0595
CCATGATA	-0.0118
GTGCACCA	-0.0761
ACATAAGC	0.0339
CATCTAGA	0.15
ACTTTTAG	0.0501
TGTTAACA	0.0681
GATTCGGA	0.16
ACGTGTCG	-0.0267
TCCCTCAA	-0.273
GCTAGGAC	-0.114

Sequence	PBM E-score
CCTACCCA	-0.146
GGATATAA	0.193
CATTGGCC	-0.213
ATGGTCGC	-0.222
CACGCCGA	-0.243
CTCTCTAC	-0.169
ATGGGTGA	-0.079
CCGACACG	-0.213
GTTCCACA	-0.0498
CGGTCGCA	-0.157
GGGCACCA	-0.303
CCGCTGCG	-0.084
ACTGGTTC	-0.152
ACTATTAT	0.188
GGAGCCAC	-0.185
ATCGAGCA	0.00566
ATGGTCTC	-0.0831
CAAATGGG	-0.033
CCAACCAG	-0.159
